# Test results published in article PMC4336329 (PLoS ONE, 2015).
# Out of some 310,000 compounds screened, about 14,000 (4.5%) showed an effect of 50% or more. Effects have a minus sign here. Some of the results follow.
# Biological target: human ether-à-go-go-related gene (hERG) potassium channel (human, UniProt Q12809)
# Assay: primary screen, population patch clamp on CHO cells stably expressing hERG
# 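Also: peak tail current of the secondary pulse compared with the same well before compound.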
# Chain of human ether-à-go-go-related gene (hERG) potassium channel (Q12809 whole entry, looked up): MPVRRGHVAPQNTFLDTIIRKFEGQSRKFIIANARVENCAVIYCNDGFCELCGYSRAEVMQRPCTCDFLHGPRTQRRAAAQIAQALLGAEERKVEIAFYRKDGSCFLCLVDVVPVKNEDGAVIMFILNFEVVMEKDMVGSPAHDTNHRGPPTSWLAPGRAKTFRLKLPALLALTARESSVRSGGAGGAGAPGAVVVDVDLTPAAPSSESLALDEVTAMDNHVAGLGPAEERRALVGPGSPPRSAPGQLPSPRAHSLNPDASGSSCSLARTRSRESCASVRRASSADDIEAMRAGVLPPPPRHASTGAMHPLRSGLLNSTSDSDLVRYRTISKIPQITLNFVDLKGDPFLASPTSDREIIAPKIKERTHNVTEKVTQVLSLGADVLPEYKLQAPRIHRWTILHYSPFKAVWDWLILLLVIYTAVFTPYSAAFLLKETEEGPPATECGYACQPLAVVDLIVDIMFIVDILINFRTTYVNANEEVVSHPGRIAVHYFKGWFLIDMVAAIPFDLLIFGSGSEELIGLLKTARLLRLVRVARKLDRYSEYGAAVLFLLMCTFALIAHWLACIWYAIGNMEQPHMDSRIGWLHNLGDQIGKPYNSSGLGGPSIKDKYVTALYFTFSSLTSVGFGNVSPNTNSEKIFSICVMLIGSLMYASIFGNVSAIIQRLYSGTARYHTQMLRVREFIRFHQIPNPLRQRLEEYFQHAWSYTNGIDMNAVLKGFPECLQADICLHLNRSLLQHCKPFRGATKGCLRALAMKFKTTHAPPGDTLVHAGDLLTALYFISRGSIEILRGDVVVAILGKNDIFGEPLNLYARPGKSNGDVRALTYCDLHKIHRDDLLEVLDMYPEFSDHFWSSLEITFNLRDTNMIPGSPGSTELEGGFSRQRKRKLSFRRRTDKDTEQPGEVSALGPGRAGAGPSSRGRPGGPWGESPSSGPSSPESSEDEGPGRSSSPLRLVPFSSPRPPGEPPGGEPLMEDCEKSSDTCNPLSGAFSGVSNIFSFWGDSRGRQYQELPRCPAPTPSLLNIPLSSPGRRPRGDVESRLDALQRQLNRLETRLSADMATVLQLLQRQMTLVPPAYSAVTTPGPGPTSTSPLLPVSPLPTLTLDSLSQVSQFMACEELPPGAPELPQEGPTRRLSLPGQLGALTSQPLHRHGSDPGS
row,Structure (SMILES),"hERG current change (%, negative = inhibition) at 10uM [%]"
1,CCn1c(Cc2ccccc2)nnc1SCC(=O)Nc1ccccc1N1CCOCC1,-30.5
2,CCN(CC)c1ccc(S(=O)(=O)N2CCCCC2)cc1NC(=O)C1CCC1,-15.3
3,Cc1ccccc1/C=N/Nc1nc2ccccc2[nH]1,12.9
4,CN1CCN(CCCC(=O)c2ccc(C3CCCC3)cc2)CC1.Cl.O,-50
5,CCCC(=O)NCCc1ccc(S(N)(=O)=O)cc1,1.43
6,Cc1cccc(NC(=O)Nc2cccc(Oc3c(F)c(F)c(F)c(F)c3F)c2)c1,8.83
7,Cc1c(C(=O)N2CCN(c3ccc(F)cc3)CC2)oc2c1C(=O)CCC2,-20.1
8,COC(=O)CCC(=O)N1CCCC(CNS(=O)(=O)c2ccc(OC)cc2)C1 (centres unmarked),39.4
9,COc1ccccc1NC(=O)CCC(=O)OC(C)C(=O)c1ccccc1 (centres unmarked),15.6
10,COc1cccc(NS(=O)(=O)c2ccc3c(c2)NC(=O)C(C)S3)c1 (centres unmarked),-8.74
11,c1cncc(CSc2nnc3ccc(-c4ccncc4)nn23)c1,-26.7
12,O=C(Cc1ccc(Cl)cc1)Nc1cccc(-c2nnc(-c3ccco3)o2)c1,7.27
13,COc1ccc(CCN(C)C(=O)c2cc(-c3ccccc3)nc3ccc(C)cc23)cc1OC,-52.1
14,CCC(=O)Oc1cccc(C(=O)Nc2ccc(-c3nnc(-c4ccco4)o3)cc2)c1,17.5
15,CC(C)(C)c1ccc(/C=C/C(=O)Nc2ccncc2)cc1,-2.45
16,CC(C)Cc1nnc(NC(=O)c2cc(-c3ccncc3)nc3ccccc23)s1,-20.9
17,CSc1c(CC(=O)NCCO)n(C)c2ccccc12,9.12
18,CCCn1c(SCC(=O)Nc2nc3ccccc3s2)nc2c1c(=O)n(C)c(=O)n2C,0.583
19,NC(N)=Nc1ccc(N=C(N)N)cc1,10.3
20,CCN1CCCc2cc(CN(CCN3CCOCC3)C(=S)Nc3ccc(OC)c(Cl)c3)ccc21,-9.09
21,COc1cc2ccccc2cc1C(=O)NC(=S)Nc1cccc(C(=O)O)c1,21
22,CCCC(NC(=O)CCc1c(C)c2cc3c(-c4ccccc4)coc3cc2oc1=O)C(=O)O (centres unmarked),4.33

row,Structure (SMILES),"hERG current change (%, negative = inhibition) at 10uM [%]"
1,O=S(=O)(/N=C(/Nc1ccc(Cl)c(S(=O)(=O)Nc2ccccc2Cl)c1)c1ccc(F)cc1)c1ccccc1,5.21
2,CCN(c1ccccc1)S(=O)(=O)c1ccc2c(c1)CC(C)N2C(=O)C1CC1 (centres unmarked),0.0873
3,COc1ccc(OC)c(NC(=O)CSc2nc(-c3ccccc3)cc(=O)[nH]2)c1,19.9
4,CC(C)CN(C(=O)CSc1nnc(-c2cccs2)n1N)c1c(N)n(Cc2ccccc2)c(=O)[nH]c1=O,-8.12
5,CC1=NC(C#N)=C(C#N)NC(C)(C)C1,9.36
6,O=C(CCS(=O)(=O)c1ccc(Cl)cc1)NCCc1c[nH]c2ccccc12,-24.7
7,S=C(NCC1CCCO1)N1CCN(c2nc(-c3ccc(Cl)cc3)cs2)CC1 (centres unmarked),3.51
8,CCCC(=O)NC(=S)Nc1cccc(-c2nc3ncccc3o2)c1,7.33
9,Cc1cc2oc(=O)cc(CN(C)Cc3ccccc3)c2cc1C(C)C,12.1
10,Cc1ccc(N2C(=O)C3CCCN3C2=S)cc1C (centres unmarked),12.8
11,O=S(=O)(c1ccc(F)cc1)N1CCN(c2nc(-c3cccnc3)nc3ccccc23)CC1,-72
12,Cc1ccnc(NC(=O)C23CC4CC(CC(C4)C2)C3)c1,-0.984
13,CC(C)Nc1nnc(SCC(=O)/C=C2\N(C)c3ccccc3C2(C)C)s1,-65.1
14,O=C1C=C(/C=C/C2C=CC=CC2)C[C@@H](c2ccc(Cl)cc2)C1 (some centres unmarked),-19.8
15,COC(=O)c1cccc(NC(=O)CCc2c(C)noc2C)c1,-4.88
16,Cc1ccc(CNC(=O)/C=C/c2ccc(S(=O)(=O)N3CCOCC3)cc2)cc1,-9.64
17,O=C(O)c1ccccc1C(=O)Nc1ccc(Oc2ccc3ccccc3c2)cc1,5.75
18,Cc1nn(CCC(=O)O)c(C)c1C,5.72
19,Cc1nc2ccccc2c2oc(C(=O)N3CCc4ccccc4C3)cc12,-17.6
20,CCSc1ncc(C#N)c(N)n1,4.49
21,CCN(CC)S(=O)(=O)c1ccc(C(=O)NNC(=O)c2csc(N3CCOCC3)n2)cc1,-9.83
22,OC1(C#CCN2CCCC2)c2ccccc2-c2ccccc21,-7.14
